{"source": "PubChem BioAssay AID361", "about": "(National Center for Advancing Translational Sciences (NCATS), 2006)", "note": "The campaign covered roughly 51,000 compounds. About 600 (1.2%) were called active. This list was built around the results that the source calls inconclusive (neither active nor inactive); the mix of calls is not that of the screen. No stated cut-off is given here; in the data, active means potency below about 11 µM; inconclusive means mostly about 12 µM to 25 µM; inactive means weaker than that;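 the screen sought inhibitors and activators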. Potencies of inconclusive entries are left out as doubtful fits. Potency means the concentration at half of the fitted maximal effect."}
{"system": "pyruvate kinase (Bacillus stearothermophilus)", "assay": "Pyruvate Kinase", "conditions": "purified pyruvate kinase, luminescence ATP production; ribose 5-phosphate activator present at AC10", "how_it_was_run": "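Activity measured as ATP generation from ADP and PEP using luciferase-coupled luminescence; 10 nM enzyme, 2 h, room temperature, with sub-maximal ribose 5-phosphate to reveal potentiators.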"}
{"smiles": "NS(=O)(=O)c1ccc(Nc2nc(-c3ccc(O)cc3)cs2)cc1", "Potency": "inconclusive [decreasing]"}
{"smiles": "O=C(Nc1ccc(N2CCN(C(=O)c3ccc(Cl)cc3)CC2)cc1)c1cccnc1", "Potency": "inconclusive [increasing]"}
{"smiles": "CC(=O)N(C)c1ccc(NC(=O)c2ccco2)cc1", "Potency": "inconclusive [increasing]"}
{"smiles": "CCCN(CCC)c1ncnc2c1cnn2-c1ccc(OC)cc1", "Potency": "inconclusive [decreasing]"}
{"smiles": "Cc1nn2c(-c3ccc(Cl)cc3)nnc2s1", "Potency": "inconclusive [decreasing]"}
{"smiles": "COC(=O)C1=C(C)OC(N)=C(C#N)C1c1ccccc1", "note": "(stereo unspecified)", "Potency": "inactive: > 57 µM"}
{"smiles": "CC1(C)CC(=O)C2=C(C1)N(CCN1CCOCC1)C1=C(C(=O)CC(C)(C)C1)C2c1ccc(Cl)cc1", "Potency": "inactive: > 57 µM"}
{"smiles": "CN(C)CCNC(=O)c1cc2ccccc2oc1=O", "Potency": "inactive: > 57 µM"}
{"smiles": "Cc1cc(O)c(-c2n[nH]c3c2C(c2cccc(O)c2)N(Cc2cccnc2)C3=O)cc1Cl", "note": "(stereo unspecified)", "Potency": "inactive: > 57 µM"}
{"smiles": "c1ccc2nc(-c3nc4ccccc4o3)ccc2c1", "Potency": "active: 1.48 µM"}
{"smiles": "Cc1cccc(Cl)c1OCCCCn1ccnc1", "Potency": "inconclusive [increasing]"}
{"smiles": "CCn1c(CSc2nnc(-c3ccc4c(c3)OCO4)o2)nc2cc(S(=O)(=O)N(C)C)ccc21", "Potency": "inactive: > 57 µM"}
{"smiles": "CC1=CC(=C2C(=O)c3ccccc3C2=O)C=C(C)N1Cc1ccco1", "Potency": "inconclusive [decreasing]"}
{"smiles": "Cc1ccc(CNC(=O)c2cc3c(=O)n4ccccc4nc3n(CC3CCCO3)c2=N)cc1", "note": "(stereo unspecified)", "Potency": "inactive: > 25.6 µM"}
{"smiles": "COc1cccc(NC(=O)COc2ccccc2C(N)=O)c1", "Potency": "inconclusive [decreasing]"}
{"smiles": "CCOC(=O)N1CCN(S(=O)(=O)c2cc(Cl)ccc2Cl)CC1", "Potency": "inconclusive [increasing]"}
{"smiles": "COc1nc(-c2ccc(C)cc2)ccc1-c1noc(-c2cccnc2)n1", "Potency": "inactive: > 57 µM"}
{"smiles": "CC1(C)N=C(c2ccc(Cl)cc2Cl)C(=O)N1", "Potency": "inconclusive [increasing]"}
{"smiles": "NC(=O)CSCc1c(Cl)cccc1Cl", "Potency": "inconclusive [increasing]"}
{"smiles": "O=C1CC2CS(=O)(=O)CC2N1c1ccc(Cl)cc1Cl", "note": "(stereo unspecified)", "Potency": "inconclusive [increasing]"}
{"smiles": "Cc1cc(S(=O)(=O)n2cnc3ccccc32)c(C)cc1Cl", "Potency": "inconclusive [increasing]"}
{"smiles": "Cc1cc2n(n1)C(c1ccc(O)cc1)Nc1ccccc1-2", "note": "(stereo unspecified)", "Potency": "inconclusive [decreasing]"}
{"smiles": "COc1cccc(-c2nc3ccc(O)cc3c(=O)o2)c1", "Potency": "active: 11.2 µM"}
{"smiles": "COC(=O)c1ccc(Cn2c(O)c(N=O)c3ccccc32)o1", "Potency": "inconclusive [increasing]"}
{"smiles": "COc1ccc2nc(C)cc(Nc3ccc(N4CCOCC4)cc3)c2c1", "Potency": "inconclusive [increasing]"}
{"smiles": "CN1C(=O)N(c2cccc3ccccc23)C(n2cncn2)C1(C)C", "note": "(stereo unspecified)", "Potency": "inconclusive [increasing]"}
{"smiles": "O=C(O)c1cccc(COc2ccc(CO)cc2Cl)c1", "Potency": "active: 0.954 µM"}
{"smiles": "Cc1cc(OCC(=O)O)c2ccccc2n1", "Potency": "inactive: > 57 µM"}
{"smiles": "COc1ccc2[nH]cc(C(=O)CN3CCCC(C)C3)c2c1", "note": "(stereo unspecified)", "Potency": "inactive: > 57 µM"}
{"smiles": "Cc1ccc2c(c1)c(C)c(C)n2CC(O)Cn1nnc2ccccc21", "note": "(stereo unspecified)", "Potency": "inactive: > 57 µM"}
{"smiles": "Cc1cc(C)c(S(=O)(=O)N2CCN(c3nc4c(c(=O)n(C)c(=O)n4C)n3C)CC2)c(C)c1", "Potency": "inconclusive [increasing]"}
{"smiles": "CC1CCc2nc(NC(=O)c3ccco3)sc2C1", "note": "(stereo unspecified)", "Potency": "active: 1.21 µM"}
{"smiles": "O=C(NC12CC3CC(CC(C3)C1)C2)N1CCC(n2nnc3ccccc32)CC1", "Potency": "inactive: > 57 µM"}
{"smiles": "Cc1ccc(-c2cc(-c3ccc(C)o3)nc(N)c2C#N)cc1", "Potency": "inactive: > 57 µM"}
{"smiles": "COc1ccc(-c2noc(CN3C(=O)c4ccccc4C3=O)n2)cc1", "Potency": "inconclusive [increasing]"}
{"smiles": "Clc1ccccc1-c1nnc2sc(-c3ccco3)nn12", "Potency": "inconclusive [increasing]"}
{"smiles": "Cc1ccc(C)c(SCC(=O)OCC(=O)c2ccco2)c1", "Potency": "inconclusive [increasing]"}
{"smiles": "COc1ccc(-c2cc3nc(C)cc(NCCO)n3n2)cc1", "Potency": "inconclusive [decreasing]"}
{"smiles": "O=C(O)C1=C(C(=O)Nc2ccc(F)c(Cl)c2)CCCC1", "Potency": "inconclusive [decreasing]"}
{"smiles": "O=S(=O)(c1cccc2cccnc12)n1cnc2ccccc21", "Potency": "inconclusive [increasing]"}
{"smiles": "O=C(CSc1nnc(-c2cnccn2)n1Cc1ccco1)c1ccc(Cl)c(Cl)c1", "Potency": "inconclusive [increasing]"}
{"smiles": "COc1c(C)cc(Br)cc1C(=O)Nc1cccc(NC(=O)c2ccco2)c1", "Potency": "inconclusive [increasing]"}
{"smiles": "Cc1nc(CC(=O)N2CCN(c3cccc(C)c3C)CC2)cs1", "Potency": "inactive: > 57 µM"}
{"smiles": "Fc1ccc2nc3[nH]c4ccccc4c3nc2c1", "Potency": "active: 3.68 µM"}
{"smiles": "COc1ccc2[nH]c(=O)c(CN(CCCN(C)C)C(=O)Nc3ccc(F)cc3)cc2c1", "Potency": "inconclusive [decreasing]"}
{"smiles": "O=C(COC(=O)c1ccccn1)Nc1cccc(Cl)c1Cl", "Potency": "inconclusive [increasing]"}
{"smiles": "Cc1ccc(S(=O)(=O)N2CCN(C(=O)CSc3nc4ccccc4c(=O)[nH]3)CC2)c(C)c1", "Potency": "inactive: > 57 µM"}
{"smiles": "Cc1ccc(S(=O)(=O)Cn2nnnc2C(c2ccc(F)cc2)N2CCCCC2)cc1", "note": "(stereo unspecified)", "Potency": "inconclusive [increasing]"}
{"smiles": "COc1ccc(NC(=O)C2CCCN(S(=O)(=O)c3ccc(C)cc3)C2)cc1OC", "note": "(stereo unspecified)", "Potency": "active: 5.37 µM"}
{"smiles": "COc1ccc(S(=O)(=O)N2CCC(C(=O)Nc3cccc(C(C)=O)c3)CC2)cc1C", "Potency": "inconclusive [increasing]"}
{"smiles": "O=C(Nc1nc(-c2ccc(Cl)s2)cs1)c1cccs1", "Potency": "inconclusive [decreasing]"}
{"smiles": "CCOc1ccc2nc(NC3=NCN(CC4CCCO4)CN3)nc(C)c2c1", "note": "(stereo unspecified)", "Potency": "inconclusive [increasing]"}
{"smiles": "Cc1cc(C)n(-c2cc(C)c(C)cc2Br)n1", "Potency": "inconclusive [increasing]"}
{"smiles": "N#Cc1nc(COc2ccc(Br)cc2)oc1NCCCn1ccnc1", "Potency": "inactive: > 57 µM"}
{"smiles": "Cc1cc(N2CCN(C)CC2)nc2ccc(NC(=O)CCC(=O)NCc3ccco3)cc12", "Potency": "inactive: > 57 µM"}
{"smiles": "CCOc1ccc(NC(=O)c2nccnc2CO)cc1", "Potency": "inconclusive [decreasing]"}
{"smiles": "CCOc1cc(N2CCOCC2)c(OCC)cc1NC(=O)COc1cccc2cccnc12", "Potency": "inconclusive [increasing]"}
{"smiles": "O=S(=O)(NC1c2cccc3cccc(c23)C1N1CCN(CCO)CC1)c1ccccc1", "note": "(stereo unspecified)", "Potency": "inconclusive [increasing]"}
{"smiles": "CCCCCCNS(=O)(=O)c1ccc(Cl)s1", "Potency": "inconclusive [increasing]"}
{"smiles": "Cc1cc(C)n(-c2cccc3cccnc23)n1", "Potency": "inconclusive [increasing]"}
{"smiles": "COc1ccc(OC)c(NC(=O)c2cc(-c3cc(Cl)ccc3O)n[nH]2)c1", "Potency": "inactive: > 57 µM"}
{"smiles": "Cc1cc(N2CCC(C)CC2)n2ncc(-c3ccccc3)c2n1", "Potency": "inconclusive [decreasing]"}
{"smiles": "COc1ncnc2sc(-c3ccccc3)cc12", "Potency": "inconclusive [decreasing]"}
{"smiles": "Cn1c(C(=O)O)c(CC(=O)NCC2COc3ccccc3O2)c2ccccc21", "note": "(stereo unspecified)", "Potency": "inconclusive [increasing]"}
{"smiles": "CCCCn1c(=N)n(CC(O)COc2ccc(C)cc2)c2ccccc21", "note": "(stereo unspecified)", "Potency": "inactive: > 57 µM"}
{"smiles": "O=C(OCc1csc(-c2ccccc2)n1)c1cccs1", "Potency": "inconclusive [decreasing]"}
{"smiles": "COc1ccccc1N1CCN(S(=O)(=O)c2cccc(F)c2)CC1", "Potency": "inconclusive [increasing]"}
{"smiles": "O=C(CCCCCn1c(=O)[nH]c2ccccc2c1=O)NCCCN1CCN(c2ccccc2F)CC1", "Potency": "inactive: > 57 µM"}
{"smiles": "O=C1C(c2ccncc2)=C(O)c2ccccc21", "Potency": "inconclusive [decreasing]"}
{"smiles": "CCCOc1ccc(-c2nnc(N)s2)cc1", "Potency": "inconclusive [decreasing]"}
{"smiles": "CCCNC(=O)c1ccccc1NS(=O)(=O)c1ccc(OC)c(OC)c1", "Potency": "inactive: > 57 µM"}
{"smiles": "Cc1ccc(-c2nnn(CC(=O)Nc3ccccc3-c3ccccc3)n2)c(-n2cnnn2)c1", "Potency": "inactive: > 57 µM"}
{"smiles": "CN1C(=S)SC(N(O)C(=O)NC2CCCCC2)C1(C)C", "note": "(stereo unspecified)", "Potency": "inactive: > 57 µM"}
{"smiles": "CCOC(=O)c1sc(NC(=O)c2ccc(Br)o2)cc1C", "Potency": "active: 6.37 µM"}
{"smiles": "CC(=O)Nc1ccc(S(=O)(=O)N2CCCc3ccccc32)cc1", "Potency": "inconclusive [increasing]"}
{"smiles": "CCc1c(C#N)c(SCc2c(C)noc2C)nc2c1C(=O)CC(C)(C)C2", "Potency": "inactive: > 57 µM"}
{"smiles": "Cc1ccc(C2NC(=O)NC3=C2CCc2ccccc23)cc1", "note": "(stereo unspecified)", "Potency": "inconclusive [decreasing]"}
{"smiles": "Cc1cccc(N(CC(=O)NCc2ccc3c(c2)OCO3)C(=O)CCC(=O)Nc2ccccn2)c1C", "Potency": "inconclusive [increasing]"}
{"smiles": "O=C(Nc1cnn(Cc2ccc(Cl)c(Cl)c2)c1)c1nc2ncccn2n1", "Potency": "inconclusive [increasing]"}
{"smiles": "O=C(Nc1ccc2oc(Cc3ccc(Cl)cc3)nc2c1)c1cccnc1", "Potency": "inconclusive [increasing]"}
{"smiles": "CCOC(=O)CSc1nnnn1-c1cccc2ccccc12", "Potency": "inconclusive [increasing]"}
